# The supplement of paper PMC3334620
# In all, about 33,000 sequences were measured (“E-score (-0.5 to 0.5)”: median about -0.041, highest 2% from about 0.37 on). The list shows a part of the results.
# Target: T1, Ecm22 (UniProt Q05958)
# T1 sequence: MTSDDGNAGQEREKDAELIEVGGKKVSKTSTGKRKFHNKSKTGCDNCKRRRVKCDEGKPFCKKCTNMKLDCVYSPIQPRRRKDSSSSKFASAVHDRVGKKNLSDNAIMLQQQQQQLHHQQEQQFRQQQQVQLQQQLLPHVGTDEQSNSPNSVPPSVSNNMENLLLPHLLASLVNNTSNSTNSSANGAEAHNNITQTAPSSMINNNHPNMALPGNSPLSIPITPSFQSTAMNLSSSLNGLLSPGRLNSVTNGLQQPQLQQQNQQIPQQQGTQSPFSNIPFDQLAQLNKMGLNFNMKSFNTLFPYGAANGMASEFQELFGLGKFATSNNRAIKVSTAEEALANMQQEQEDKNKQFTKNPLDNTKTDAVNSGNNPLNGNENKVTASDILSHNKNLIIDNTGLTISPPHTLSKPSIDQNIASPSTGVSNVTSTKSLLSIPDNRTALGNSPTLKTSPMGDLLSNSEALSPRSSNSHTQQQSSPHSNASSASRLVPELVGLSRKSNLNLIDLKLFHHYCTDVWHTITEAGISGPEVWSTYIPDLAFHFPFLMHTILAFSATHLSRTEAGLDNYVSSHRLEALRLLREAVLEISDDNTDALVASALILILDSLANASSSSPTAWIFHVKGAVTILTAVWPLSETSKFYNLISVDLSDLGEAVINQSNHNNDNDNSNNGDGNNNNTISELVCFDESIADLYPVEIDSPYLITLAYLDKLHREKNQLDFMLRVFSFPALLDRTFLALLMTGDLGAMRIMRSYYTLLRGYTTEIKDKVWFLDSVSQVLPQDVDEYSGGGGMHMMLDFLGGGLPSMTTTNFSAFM
# Assay: PBM E-score (8-mer binding enrichment) (E-score (-0.5 to 0.5)); higher = stronger / more preferred TF binding; most listed sequences are background and not binding sites
# Conditions: protein concentration: 200 nM; construct: GST-full length
# How it was run: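 Universal all-10-mer Agilent arrays, fresh or stripped once, were converted to double-stranded form by primer extension. GST-tagged yeast transcription factors from PURExpress in vitro transcription/translation, full-length or DNA-binding domain only, were applied at about 100-200 nM and detected with fluorescent anti-GST. After masliner normalisation, the Universal PBM Analysis Suite scored each ungapped eight-base word together with its reverse complement by E-score.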
row,Sequence,PBM E-score
1,CAAACGTC,0.119
2,CCTAACTC,0.0132
3,GCAATCGC,0.0198
4,ATCTGATA,-0.128
5,ATTGTCTA,0.165
6,CGTAGGCA,0.0261
7,AATGGCTC,0.0478
8,CCACAATA,-0.0497
9,CTAATTGA,-0.0982
10,AACATACC,0.14
11,TCTCCGAA,0.0722
12,AGATTGAA,-0.147
13,ACAGGATA,0.115
14,TCATACCA,-0.0984
15,GCGGTAAA,0.173
16,CCCGCCCG,0.172
17,ACCTCCCC,-0.123
18,ACGCTCCA,0.021
19,ATACCTCC,-0.0991
20,ATCTCAAA,-0.0417
21,GCGACAAA,0.00659
22,ACACTGAA,0.0983
23,CAAGACTA,-0.187
24,CATGGGAG,-0.0986
25,TGTGGCAA,-0.0219

row,Sequence,PBM E-score
1,GACTCCAA,-0.154
2,GAACTGCA,-0.00253
3,GATATCAA,0.00995
4,CGCGGTAG,-0.0685
5,GCTACAGA,-0.121
6,CCTGACCA,-0.0624
7,CAGACTTA,-0.151
8,AGTAACAT,-0.0483
9,ATGGACGC,-0.117
10,AGACGTAG,-0.0478
11,AGGGCACA,-0.0681
12,GATCCTCA,-0.0376
13,AGCATGAT,-0.184
14,ATGCCAGC,-0.223
15,CAGTCTCA,-0.26
16,GGGATCCC,-0.0461
17,CGCGAACG,0.269
18,AGCTGACC,-0.243
19,CGGCCTCC,-0.0189
20,GAATAGGC,-0.0883
21,AAACGATC,0.423
22,ACCTACGC,-0.0909
23,AAGGCCGA,-0.0674
24,TGCCTGAA,-0.135
25,AATCTCCG,-0.0637

row,Sequence,PBM E-score
1,AGGAATAG,-0.117
2,CTCCGATC,-0.17
3,ACTCACAG,-0.253
4,CTCGGCCC,0.00167
5,GCTGGAAA,-0.217
6,CATTTCAA,-0.0917
7,GAGGCATA,0.0424
8,AGTGCTTC,-0.0125
9,AAAACTTC,0.052
10,GGGATGAA,-0.325
11,ACTACTGA,-0.0877
12,GAAGGTGA,-0.157
13,AGCATTAC,0.0473
14,ATCGCCTC,0.0614
15,ATAAACCA,-0.0402
16,AAAGTATC,0.0687
17,ACTGCCGG,-0.145
18,CTAACATC,-0.15
19,ACAAGGCT,-0.229
20,TACGTCGA,0.168
21,CCACCGCG,0.0904
22,TACTCCGA,-0.0941
23,AATCGTCC,0.0602
24,CCTGTCCA,-0.246
25,CCAGTGAG,-0.323

row,Sequence,PBM E-score
1,CCAGCCTC,-0.16
2,GCGTTGGA,-0.212
3,ATGAGCCC,-0.0731
4,CTCATTCA,-0.198
5,CATTATAC,0.237
6,AAACGGAC,0.307
7,GAGCCTGC,-0.0544
8,CTTAAGAA,-0.0446
9,AAGGCGCC,-0.037
10,TCATGTCA,-0.187
11,CCAAGTCC,-0.205
12,TAAAGCCA,0.0235
13,CTGGGATC,-0.215
14,GCCCGGAA,-0.0251
15,CAGAATAG,0.0984
16,ACGTCCTG,-0.131
17,GAAACGCC,0.0403
18,AGTTTCGG,0.118
19,TGCAGCAA,0.186
20,AGACAGGA,-0.0652
21,CCGGGGGA,-0.218
22,GAGGCATC,0.0852
23,ATCGCTGC,-0.119
24,ATGCAATG,-0.132
25,CAAGCTGA,-0.211

row,Sequence,PBM E-score
1,GATGTTGA,-0.191
2,CCCTGTGC,-0.0607
3,CTTCCTTA,-0.079
4,GGGGTTTA,-0.199
5,AAGGGGCA,-0.216
6,ACCCTACT,-0.215
7,GCACAACC,-0.0938
8,CTGATCTC,0.00531
9,CAAATCTC,0.0679
10,AAATGGGT,-0.0372
11,ATTATGGA,-0.0323
12,CAGTTGCC,-0.127
13,TCTGACCA,-0.106
14,CCTCGCAC,0.298
15,AGCGCTCG,-0.0561
16,ACTCTGGG,-0.193
17,AGCCGGCG,-0.0176
18,ACACGACA,0.233
19,GTAGAGCA,-0.13
20,TCCGTAAA,0.332
21,CCCTCGGA,0.211
22,CAGGCCGA,-0.0836
23,ACAACGAT,0.152
24,CGACCCAG,-0.0889
25,CTTCTCAC,-0.187

row,Sequence,PBM E-score
1,AGACAAGC,-0.059
2,CTTCGGAC,0.143
3,TGATACCA,0.0464
4,AAATCGAC,0.109
5,TCGATGCA,-0.0661
6,AATTGGGT,0.0633
7,GAGAGATC,-0.0464
8,CGTAGCAC,0.293
9,AAACGCTC,0.141
10,CTGACGTC,-0.0569
11,ATCGCCCA,-0.194
12,ATGGATTA,-0.315
13,ACATGGCT,-0.0681
14,CCTCATAA,-0.0924
15,AGTTGGTG,-0.0901
16,GCGGCGAC,-0.0167
17,ACAACCAC,0.0223
18,CCACCGGA,0.0649
19,ATCATTGC,-0.134
20,GAATACGA,0.432
21,TCACATGA,-0.229
22,CACGAGTA,0.157
23,AACTACTG,-0.22
24,GGGGACAA,0.07
25,ATAGACAA,0.0755

row,Sequence,PBM E-score
1,AGTTGCGC,-0.0126
2,ATGGATAG,-0.0329
3,CCCCTGCC,-0.251
4,AACAGGGT,-0.263
5,GATGAGGA,-0.0394
6,GGATTGAA,-0.0222
7,GTATGAAA,0.282
8,TATAGACA,0.12
9,ATTCGAGC,0.116
10,AGGCGTTC,-0.0549
11,GGGGGTAA,-0.31
12,AAGTTAGT,-0.073
13,GGGGGGGA,-0.406
14,AAGTAACG,0.139
15,ACAGGGTA,0.0772
16,CAACATCA,-0.197
17,TAGGTACA,-0.1
18,CCTGCGGA,-0.106
19,CGCTGCCA,-0.132
20,CCACGATC,0.0737
21,GTCTTTGA,-0.0629
22,AGCAGACG,-0.0439
